In US12325690B2, “Compounds for the reducing lipotoxic damage” (Mayo Foundation for Medical Education and Research, priority 2017, dated 2025):

How the values were obtained:
pancreatic lysate lipase = target: T1, pancreatic lysate lipase (Mus musculus, UniProt Q6P8U6); test: Lipase activity assay with pancreatic lysate (commercial Pointe scientific lipase assay); assay type: biochemical; settings: solution stored overnight at room temperature
T1 construct: efficacy against mouse pancreatic lysates; other: summary of strengths of 767; efficacy as a solution when left overnight; other: solution left overnight; efficacy in the lipase activity assay compared with orlistat when fresh; other: fresh solution; IC50 of orlistat after overnight incubation (nearest tested concentration); other: after overnight incubation; improvement in stability and e
T1 sequence (Q6P8U6 17-465): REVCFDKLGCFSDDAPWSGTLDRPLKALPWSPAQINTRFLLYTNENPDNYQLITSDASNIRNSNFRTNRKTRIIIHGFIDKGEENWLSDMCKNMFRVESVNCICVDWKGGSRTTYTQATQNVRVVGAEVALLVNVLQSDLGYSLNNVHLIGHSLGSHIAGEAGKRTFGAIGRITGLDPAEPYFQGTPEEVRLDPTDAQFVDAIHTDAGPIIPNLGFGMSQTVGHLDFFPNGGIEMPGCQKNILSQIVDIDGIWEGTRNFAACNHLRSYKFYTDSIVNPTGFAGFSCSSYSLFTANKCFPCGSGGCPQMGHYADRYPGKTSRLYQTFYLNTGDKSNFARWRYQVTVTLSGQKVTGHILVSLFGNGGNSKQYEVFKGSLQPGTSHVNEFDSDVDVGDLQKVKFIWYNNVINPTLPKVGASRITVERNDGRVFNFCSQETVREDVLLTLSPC
Protocol: To test the efficacy of these compounds, the agents were dissolved as a 20 mM stock in ethanol, and further diluted to in PBS as a 600 micromolar working stock (3.3% ethanol). This was either used immediately or left at room temperature for 16-20 hours overnight before retesting efficacy. The agents were incubated with a pancreatic lysate in serial ⅓ dilutions spanning a range of 200 to 0.3 micromolars for 30 minutes. 5 microliters of these mixtures were then used to measure lipase activity using a commercial lipase assay (Pointe scientific) containing a monoacyl glycerol lipase in the reagent. The lipase assay was done using reagents in proportion to the recommended protocol. Values were depicted as % maximal lipase activity of the well without any inhibitor.

[1] = tested on: acinar cells in acinar-adipocyte co-culture; settings: 66 micromolars

| SMILES | improvement in stability and efficacy over orlistat after overnight storage (pancreatic lysate lipase) | toxicity to acinar cells [1] | efficacy in reducing lipotoxic damage to acinar cells ([1]; acinar-adipocyte co-culture) |
| --- | --- | --- | --- |
| CCCCCCCCCCC[C@@H](C[C@@H]1OC(=O)[C@H]1CCCCCC)OC(=O)[C@H](COC=O)NC=O [Compound 736] | approximately 10 fold |  |  |
| CCCCCCCCCCC[C@@H](C[C@@H]1OC(=O)[C@H]1CCCCCC)OC(=O)[C@H](C)NC=O [Compound 741] | approximately 10 fold | least toxic | retaining its efficacy |
